Assay results from PubChem BioAssay (NCATS).
The inconclusive results got no clear call from the source; some entries with a clear call stand among them for comparison. For part of these data: Where the call is inconclusive, the potency comes from a doubtful curve fit. Active and inactive are the calls of the source. Calls follow the shape of the dose curve; as a rule, active = well fitted curve in the direction sought with a large enough effect; inconclusive = small, poorly fitted or top-dose-only effect, or another doubt; inactive = no such curve, though single readings can be large; an effect the other way counts as inactive or inconclusive.

Key:
[1] = Viability qHTS for spleen associated tyrosine kinase inhibitor (SYKi) naive MV4-11 cells (AID 1963823); details: MV4-11 AML viability, CellTiter-Glo luminescence, 72 h; viability (% of control): at 45 µM (top of the series); also: nearly all actives have a fitted effect of over 40% in size
Procedure, shortened: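 SYK inhibitor-naive MV4-11 cells, 500 per well, exposed to compounds for 72 hr at 37 C, 5% CO2. Viability read as CellTiter-Glo luminescence after 10 min at room temperature.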

[2] = Cellular viability qHTS for adrenocortical cancer (ACC) cell line SW-13 (AID 1963989); details: SW-13 ACC cells viability, CellTiter-Glo, 48 h; activity (max response): active compounds read low; also: nearly all actives have a fitted effect of over 65% in size;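 as to activity (max response): cells grown in serum-free medium with ITS supplement; % is scaled to controls: 0 for no effect and ±100 for the full control effect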
Procedure, shortened: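 Luminescent ATP read-out (CellTiter-Glo, 20 min at room temperature) measured metabolically competent SW-13 cells after 48 h compound treatment. Final concentrations spanned up to 46 uM; bortezomib served as positive control.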

[3] = Cellular viability qHTS for adrenocortical cancer (ACC) cell line NCI-H295R (AID 1963990); details: CellTiter-Glo ATP luminescence, 48 h; activity change, negative = viability loss: at 46.1 µM (top of the series); also: nearly all actives have a fitted effect of over 60% in size;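 as to activity change, negative = viability loss: 0% = DMSO only wells and -100% = full killing with cytotoxic reference compound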
Procedure, shortened: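 IC50 and maximal efficacy derive from four-parameter logistic modelling of titration curves, with reads scaled between DMSO-only wells (0%) and doxorubicin hydrochloride (100% inhibition). Compounds spanned up to 46 uM over 48 h.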
Potency is read from the fitted curve at half-maximal effect; tags tell the direction and shape of the fitted curve.

Compound | Potency [1] | Potency [2] | Potency [3] | activity (max response) [2]
CCCCCCC[N+](CC)(CC)CCCCc1ccc(Cl)cc1 | active: 1.68 µM | active: 5.8 µM | inconclusive: 20.6 µM [cytotoxic, partial curve, poor fit] | 
Cn1cc(-c2cnn3c(N)c(Br)c([C@@H]4CCCNC4)nc23)cn1 | inconclusive: 0.517 µM [cytotoxic, full curve] |  | inconclusive: 35.5 µM [cytotoxic, single point] | 
CC(=O)OCC1=C(C(=O)O)N2C(=O)[C@@H](NC(=O)Cc3cccs3)[C@H]2SC1 | inactive |  | inactive | 
CC(C)(C)NC(=O)c1cncn1C1CCN(c2ccc(-c3nnc(C(F)(F)F)o3)cn2)CC1 | inconclusive: 5.25 µM [cytotoxic, partial curve] |  | active: 2.82 µM | 
NS(=O)(=O)c1ccc(Cc2c(-c3cccc(-c4ccccc4)c3)nn(-c3nc(C(=O)O)cs3)c2CC2CC2)cc1 | inconclusive: 7.42 µM [cytotoxic, partial curve] | active: 31.6 µM | active: 28.2 µM | 
CC(=O)N[C@@H](CC(C)C)C(=O)O | inactive |  | inactive | inactive: 7.87%
